Reference: PubChem BioAssay AID2675 (National Center for Advancing Translational Sciences (NCATS), 2010)
Hit rate of the full screen: of about 280,000 compounds, about 100 (0.036%) were called active. The inconclusive results got no clear call from the source; some entries with a clear call stand among them for comparison. Calls come from the whole dose curve; as a rule, active = well fitted inhibition curve with a large enough effect in the signal ratio, with a control signal flat (not every such curve was filed as active); inconclusive = small, poorly fitted or top-dose-only effect, or effect the other way, or a change in a side signal; inactive = no such curve, though single readings can be large or run the other way; the % refers to the signal ratio. Potencies of inconclusive entries are doubtful fits and often do not repeat. “Side channel” marks fits to a control or component signal instead of the main read-out.

target: Muscleblind-like protein 1 (Homo sapiens) (UniProt Q9NR56); experiment: qHTS Assay for Inhibitors of MBNL1-poly(CUG) RNA binding; details: TR-FRET MBNL1-His/biotin-(CUG)12 binding, 665/545 ratio; series mostly up to 57.5 µM
Summary of the method: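 Inhibition of protein-RNA binding appears as loss of TR-FRET between terbium anti-His antibody on MBNL1-His and streptavidin-XL665 on biotin-(CUG)12. Activity is normalized to buffer-only and uninhibited-complex controls.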
Potency is the fitted concentration of half-maximal effect; tags give direction and shape of the fitted curve or compound fluorescence and quenching.

Sequence of UniProt Q9NR56 (Q9NR56 whole entry, looked up): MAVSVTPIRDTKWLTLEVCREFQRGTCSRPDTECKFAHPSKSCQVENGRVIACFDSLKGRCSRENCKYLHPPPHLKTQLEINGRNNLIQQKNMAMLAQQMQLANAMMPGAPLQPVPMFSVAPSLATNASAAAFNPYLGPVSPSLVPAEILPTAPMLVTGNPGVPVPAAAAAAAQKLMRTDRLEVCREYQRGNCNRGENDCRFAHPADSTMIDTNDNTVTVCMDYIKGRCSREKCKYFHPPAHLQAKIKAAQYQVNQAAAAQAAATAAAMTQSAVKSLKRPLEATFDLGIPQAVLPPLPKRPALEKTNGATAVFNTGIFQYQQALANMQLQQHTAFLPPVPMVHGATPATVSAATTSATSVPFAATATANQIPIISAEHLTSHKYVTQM

Q: Which Potency does the source give for `COC1=C(N)C(=O)c2nc(-c3nc(C(=O)O)c(C)c(-c4ccc(OC)c(OC)c4O)c3N)ccc2C1=O` here?
A: Its Potency is inconclusive: 17.8 µM [quencher, side channel, partial curve].

Q: With `COc1cc(OC)c(C2CC(=O)N3CN(C)CSC3=C2C#N)cc1OC` (stereo unspecified) as the compound, how does the Potency read?
A: The Potency was “inactive”.

Q: With `Cc1ccc(C(=O)N2CCCN(c3nc4cc5c(cc4cc3C#N)OCO5)CC2)cc1` as the compound, how does the Potency read?
A: Its Potency is inconclusive: 17.8 µM [quencher, side channel, partial curve].

Q: With `Nc1nc[nH]c(=O)c1N=Cc1ccccc1` as the compound, how does the Potency read?
A: The Potency was inconclusive: 25.1 µM [quencher, side channel, single point].

Q: With `COc1ccc(CC2=CC(=O)c3ccccc3C2=O)cc1` as the compound, how does the Potency read?
A: The Potency was inconclusive: 28.2 µM [quencher, side channel, single point].

Q: For `CSc1ccc(-c2cc(=O)c3ccccc3o2)cc1`, which Potency is on record?
A: The Potency was inconclusive: 10 µM [quencher, side channel, single point].

Q: How did the Potency turn out when `COc1cccc(CC(Cc2nc3ccccc3[nH]2)c2nc3ccccc3[nH]2)c1` (stereo unspecified) was run?
A: The Potency was inconclusive: 0.794 µM [inhibitor, full curve, poor fit].

Q: With `COCCNC(=S)Nc1ccc([N+](=O)[O-])cc1C` as the compound, how does the Potency read?
A: The Potency was inconclusive: 12.6 µM [quencher, partial curve].

Q: `O=C(CSc1ccc([N+](=O)[O-])cn1)Nc1ccc2c(c1)OCCO2` was tested. Which Potency did it give?
A: The Potency was inconclusive: 14.1 µM [quencher, partial curve].

Q: `NC(=O)CCn1c(C(=O)c2cccc([N+](=O)[O-])c2)c2ccccc2[n+]1[O-]` was tested. Which Potency did it give?
A: Its Potency is inconclusive: 17.8 µM [quencher, side channel, partial curve].

Q: With `O=C(CNC(=O)Cc1ccccc1)N=Nc1c(O)[nH]c2ccc(Br)cc12` as the compound, how does the Potency read?
A: Its Potency is inconclusive: 5.62 µM [quencher, side channel, partial curve].

Q: `COc1ccc(OC)c2c1C(=O)c1ccccc1C2=O` was tested. Which Potency did it give?
A: The Potency was inconclusive: 8.91 µM [quencher, side channel, partial curve].

Q: With `CC(=O)c1c(C)[nH]c(C(=O)Nc2ccc(F)c(F)c2F)c1C` as the compound, how does the Potency read?
A: The Potency was inconclusive: 39.8 µM [fluorescent, side channel, single point].

Q: How did the Potency turn out when `CCc1cccc(CC)c1NC(=S)NCCc1c(C)[nH]c2ccc(C)cc12` was run?
A: Its Potency is “inactive”.

Q: With `Cc1no[n+]([O-])c1COc1ccccc1/C=C1\NC(=S)NC1=O` as the compound, how does the Potency read?
A: The Potency was inconclusive: 12.6 µM [quencher, side channel, partial curve].

Q: `COCCNC(=O)c1cc(-c2cccs2)on1` was tested. Which Potency did it give?
A: The Potency was “inactive”.

Q: Which Potency does the source give for `CCN(CC)CCCNc1cc(C)nc2cc(-c3cccs3)nn12` here?
A: The Potency was inconclusive: 10 µM [inhibitor, single point].

Q: With `CCN(C(=O)COC(=O)/C=C/c1cccc([N+](=O)[O-])c1)c1ccccc1` as the compound, how does the Potency read?
A: The Potency was inconclusive: 10 µM [quencher, partial curve].

Q: Which Potency does the source give for `CNc1nc(C)c(C(=O)c2ccc(Cl)cc2)s1` here?
A: The Potency was inconclusive: 25.1 µM [quencher, side channel, partial curve].

Q: Which Potency does the source give for `O=C(Nc1cc([N+](=O)[O-])ccc1O)c1cccc(NC(=O)c2ccco2)c1` here?
A: The Potency was inconclusive: 11.2 µM [quencher, side channel, partial curve].

Q: How did the Potency turn out when `Cc1cccc(C)c1NC(=S)N(CCN(C)C)Cc1cccs1` was run?
A: Its Potency is “inactive”.

Q: For `O=C1c2ccccc2C(=O)c2c(NCc3cccnc3)cccc21`, which Potency is on record?
A: The Potency was inconclusive: 2.24 µM [quencher, side channel, full curve, poor fit].

Q: Which Potency does the source give for `COc1cccc(-c2nnc(NC(C)=O)o2)c1` here?
A: The Potency was “inactive”.

Q: `Cc1cc(-c2ccc(/C=N/n3cnnc3)o2)ccc1Cl` was tested. Which Potency did it give?
A: Its Potency is inconclusive: 14.1 µM [quencher, side channel, partial curve].

Q: How did the Potency turn out when `O=C1/C(=C/c2ccccc2)SC(=S)N1CCCC(=O)N1CCCCC1CCO` (stereo unspecified) was run?
A: Its Potency is inconclusive: 15.8 µM [quencher, partial curve].

Q: `CC(=O)Oc1ccc2c(c1)Oc1cc(OC(C)=O)ccc1C21OC(=O)c2ccccc21` was tested. Which Potency did it give?
A: The Potency was inconclusive: 10 µM [quencher, side channel, partial curve].

Q: With `O=C(NC(=S)Nc1cccc2c(O)cccc12)c1ccco1` as the compound, how does the Potency read?
A: Its Potency is inconclusive: 10 µM [quencher, side channel, partial curve].

Q: With `O=C(/C=C/c1ccccc1Cl)NCCc1ccc(F)cc1` as the compound, how does the Potency read?
A: The Potency was inconclusive: 0.794 µM [fluorescent, side channel, single point].

Q: With `CCN(CC)c1ccc(C=Nc2ccc(N(C)C)cc2)c(O)c1` as the compound, how does the Potency read?
A: Its Potency is inconclusive: 15.8 µM [quencher, partial curve].

Q: Which Potency does the source give for `COc1cc(OC)cc(C(=O)Nc2ccc(C(=O)c3ccncc3)cc2)c1` here?
A: The Potency was inconclusive: 15.8 µM [quencher, side channel, partial curve].

Q: How did the Potency turn out when `CC1CCC(n2c(=S)[nH]c3ccccc3c2=O)CC1` (stereo unspecified) was run?
A: The Potency was “inactive”.

Q: `O=C(Nc1cccc2nsnc12)C1CC(=O)N(c2ccccc2)C1` (stereo unspecified) was tested. Which Potency did it give?
A: The Potency was inconclusive: 14.1 µM [quencher, side channel, partial curve].

Q: For `O=c1[nH]c(=O)c2ncc(-c3ccc(Cl)cc3)nc2[nH]1`, which Potency is on record?
A: Its Potency is inconclusive: 2 µM [quencher, side channel, full curve].

Q: With `CC(NC(=O)C(=O)N/N=C\c1cccc([N+](=O)[O-])c1)c1ccccc1` (stereo unspecified) as the compound, how does the Potency read?
A: The Potency was inconclusive: 0.891 µM [quencher, side channel, full curve, poor fit].

Q: How did the Potency turn out when `O=C(N/N=C/c1cccc2ccccc12)C(=O)N1CCCC1` was run?
A: Its Potency is inconclusive: 15.8 µM [quencher, side channel, partial curve].

Q: `Cc1ccc(C(=O)N/C(=C\c2ccco2)C(=O)NCC2CCCO2)cc1C` (stereo unspecified) was tested. Which Potency did it give?
A: The Potency was inconclusive: 22.4 µM [quencher, side channel, partial curve].

Q: `COc1ccc2oc(=O)c(C(=O)N3CCN(C(=O)c4ccccc4)CC3)cc2c1` was tested. Which Potency did it give?
A: The Potency was inconclusive: 28.2 µM [quencher, side channel, partial curve].

Q: How did the Potency turn out when `C=C1CC(C)OC(c2ccccc2OCC(O)CN2CCCCC2)C1` (stereo unspecified) was run?
A: Its Potency is inconclusive: 3.98 µM [quencher, side channel, single point].

Q: For `Cc1ccc(N(C)S(=O)(=O)c2ccc3c(c2)CC(C)N3C(=O)C2CC2)cc1` (stereo unspecified), which Potency is on record?
A: The Potency was inconclusive: 4.47 µM [quencher, side channel, single point].

Q: `CCOC(=O)C1CCCN(C(=O)c2ccc3nc(-c4ccc(OC)c(OC)c4)c(-c4ccc(OC)c(OC)c4)nc3c2)C1` (stereo unspecified) was tested. Which Potency did it give?
A: The Potency was inconclusive: 14.1 µM [quencher, side channel, partial curve].

Q: `O=[N+]([O-])c1ccc(C2=NN(c3ccccc3)C(c3ccco3)C2)cc1` (stereo unspecified) was tested. Which Potency did it give?
A: Its Potency is “inactive”.

Q: For `COc1ccc(/C=C/C(=O)Nc2nc(C)c(C(=O)N(C)C)s2)cc1OC`, which Potency is on record?
A: The Potency was inconclusive: 39.8 µM [quencher, side channel, single point].

Q: For `CN(c1ccccc1)c1ccc(/C=C/[N+](=O)[O-])cc1`, which Potency is on record?
A: The Potency was inconclusive: 0.501 µM [fluorescent, side channel, full curve].

Q: `CC(=O)N1c2ccc(S(=O)(=O)NC(CC(=O)O)c3ccc(Br)cc3)cc2CC1C` (stereo unspecified) was tested. Which Potency did it give?
A: Its Potency is “inactive”.

Q: `Cc1nc2ccccc2nc1NS(=O)(=O)c1ccc(N)cc1` was tested. Which Potency did it give?
A: The Potency was inconclusive: 17.8 µM [quencher, side channel, partial curve].

Q: Which Potency does the source give for `COc1cc([N+](=O)[O-])ccc1NC(=O)Nc1nc2c(s1)CCCC2` here?
A: The Potency was inconclusive: 0.251 µM [fluorescent, side channel, partial curve].

Q: For `Cc1c(NC(=O)c2ccc3c(c2)C(=O)N(CC2CCCO2)C3=O)cccc1C(=O)O` (stereo unspecified), which Potency is on record?
A: Its Potency is inconclusive: 14.1 µM [quencher, partial curve].

Q: `O=C(CCCN1C(=O)S/C(=C\C=C\c2ccccc2)C1=O)Nc1ccc(C(=O)O)cc1` was tested. Which Potency did it give?
A: Its Potency is inconclusive: 3.55 µM [quencher, side channel, full curve].

Q: How did the Potency turn out when `COc1ccc(S(=O)(=O)Nc2cccc(Cl)c2)cc1OC` was run?
A: The Potency was “inactive”.

Q: `CCCCCCCCC/C(=N\O)c1ccccn1` was tested. Which Potency did it give?
A: Its Potency is “inactive”.

Q: With `COc1ccc(-n2nc(C(=O)NCC(=O)Nc3cccc(Cl)c3)c3ccccc3c2=O)cc1` as the compound, how does the Potency read?
A: The Potency was inconclusive: 10 µM [fluorescent, side channel, partial curve].

Q: Which Potency does the source give for `Fc1ccc(N=C2NN=C(c3cc(F)ccc3F)CS2)cc1` here?
A: The Potency was “inactive”.

Q: `CCC(C(=O)NN1C(=O)c2ccccc2C1=O)c1ccccc1` (stereo unspecified) was tested. Which Potency did it give?
A: Its Potency is inconclusive: 20 µM [quencher, side channel, single point].

Q: `O=C(O)COc1cccc2nsnc12` was tested. Which Potency did it give?
A: The Potency was inconclusive: 7.94 µM [quencher, side channel, partial curve].

Q: With `OCCC1CN(Cc2ccc3nonc3c2)CCN1Cc1ccsc1` (stereo unspecified) as the compound, how does the Potency read?
A: The Potency was inconclusive: 14.1 µM [quencher, side channel, partial curve].

Q: For `Cc1ccc(SCC(=O)NCc2ccco2)cc1`, which Potency is on record?
A: The Potency was inconclusive: 7.08 µM [quencher, side channel, single point].

Q: How did the Potency turn out when `NNc1nc(-c2ccccc2)c2ccccc2n1` was run?
A: The Potency was “inactive”.

Q: Which Potency does the source give for `O=C(/C=C/c1cccs1)Nc1sc2c(c1C(=O)O)CCCC2` here?
A: Its Potency is inconclusive: 35.5 µM [quencher, side channel, single point].

Q: With `COCC(=O)N1CCCC(C(=O)c2ccc3c4c(cccc24)CC3)C1` (stereo unspecified) as the compound, how does the Potency read?
A: The Potency was inconclusive: 17.8 µM [quencher, side channel, partial curve].

Q: With `c1ccc2c(NCCc3c[nH]c4ccccc34)c3ccccc3nc2c1` as the compound, how does the Potency read?
A: Its Potency is inconclusive: 20 µM [quencher, side channel, partial curve].

Q: Which Potency does the source give for `CN(C)C=NC(=O)c1ccc(N2CCN(c3ncc(C(F)(F)F)cc3Cl)CC2)cc1` here?
A: The Potency was “inactive”.
